Reference: PubChem BioAssay AID686978 (National Center for Advancing Translational Sciences (NCATS), 2013)
The whole screen tested about 420,000 compounds, of which about 64,000 (15%) were called active. The inconclusive results got no clear call from the source; some entries with a clear call stand among them for comparison. Calls come from the whole dose curve; as a rule, active = well fitted inhibition curve with a large enough effect; inconclusive = small, poorly fitted or top-dose-only effect; inactive = flat fitted curve, though single readings scatter. Potencies of inconclusive entries are left out as doubtful fits.
% is set by controls: 0 for no effect and ±100 for the full control effect; potency is the fitted concentration of half-maximal effect; tags give direction and shape of the fitted curve.

Assay: qHTS for Inhibitors of human tyrosyl-DNA phosphodiesterase 1 (TDP1): qHTS in cells in absence of CPT; note: nearly all actives have a fitted effect of over 55% in size
Conditions: DT40 Tdp1-/- hTDP1 cells, no CPT, ATP luminescence, 48 h; activity change, negative = growth inhibition: at 46.2 µM (top of the series) unless noted
Summary of the method: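 Cells were dispensed at 400 per well, compounds added by pin tool, plates incubated ≥48 hr at 37 °C, then CellTiter-Glo added for 30 min at room temperature before luminescence reading. Line: DT40 Tdp1-/- complemented with hTDP1; camptothecin omitted.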
With `Cc1ccc(Sc2cc(N3CCOCC3)nc(-c3ccccc3)n2)cc1` the Potency was inconclusive [inhibitor, partial curve, poor fit]. In the case of `COc1c2c(c3c(c1OC)c(=O)c1ccccc1n3C)OCO2`, the Potency was inconclusive [inhibitor, single point]. In the case of `O=C(NCc1cccnc1)C1CCCN(Cc2cnn(-c3ccccc3)c2-n2cccc2)C1` (stereo not drawn), the Potency was inconclusive [inhibitor, partial curve]. For `CCOc1ccc(-c2nc3ccccc3c(=O)o2)cc1`, the Potency was inconclusive [inhibitor, single point]. For `CC(=C/c1ccccc1)/C=N/n1c(C)n[nH]c1=S`, the Potency was inconclusive [inhibitor, partial curve]. With `CCOc1cc(/C=C2\CN(CC)C/C(=C\c3ccc(O)c(OCC)c3)C2=O)ccc1O` the Potency was active: 4.11 µM. With `COc1ccc(NC2=C(C(C)=O)C(c3ccc(OC)c(OC)c3)C(C(C)=O)C(C)(O)C2)cc1` (stereo not drawn) the Potency was inconclusive [inhibitor, partial curve]. With `O=C(CP(=O)(c1ccccc1)c1ccccc1)Nc1nc2ccc(Cl)cc2s1` the Potency was inconclusive [inhibitor, single point]. For `Cc1ccccc1NC(=O)NC(C)(C)CC(C)(C)C`, the Potency was inconclusive [inhibitor, partial curve]. In the case of `COc1cccc(NC(=O)CN2C(=O)COc3ccc(S(=O)(=O)N4CCC(C)CC4)cc32)c1`, the Potency was inconclusive [inhibitor, partial curve]. For `CN1C(=O)C2(c3ccccc31)N(c1ccc(Br)cc1)C(=O)CS2(=O)=O` (stereo not drawn), the “activity change, negative = growth inhibition” value was inactive: -3.69%. In the case of `CC(=O)c1cccc(NC(=O)CN2C(=O)NC3(CCCCCCC3)C2=O)c1`, the “activity change, negative = growth inhibition” value was inactive: -28.3%. For `Cc1ccccc1OCCNC(=O)/C=C/c1ccccc1`, the Potency was inconclusive [inhibitor, partial curve]. With `COc1ccc(C(=O)NC(=S)Nc2ccccc2N2CCOCC2)cc1[N+](=O)[O-]` the Potency was active: 16.4 µM. For `COc1ccc2c(c1)-c1nc(NC(=O)c3cc(OC)c(OC)c(OC)c3)sc1CC2`, the Potency was active: 18.4 µM. With `COc1cc(-c2nc(C)cnc2C)cc2c1OCCN(C(=O)Cc1cc(OC)c(OC)c(OC)c1)C2` the “activity change, negative = growth inhibition” value was inactive: -5.26%. In the case of `Cc1nn(-c2ncc(C(F)(F)F)cc2Cl)c(=O)n1-c1c(F)cccc1F`, the Potency was inconclusive [inhibitor, single point]. For `CC1CCc2nc(NC(=O)CN3CCN(c4ccc(F)cc4)CC3)sc2C1` (stereo not drawn), the Potency was inconclusive [inhibitor, single point]. In the case of `CC(C)(C)OC(=O)CNC(=O)c1[nH]cnc1C(=O)NCCCCCNC(=O)OC(C)(C)C`, the Potency was active: 14.6 µM. With `CC(C)CCn1c(SCc2cccc(F)c2)nc2ccsc2c1=O` the Potency was inconclusive [inhibitor, single point]. For `Cc1nc(SCc2ccc(Cl)cc2)ncc1C(=O)O`, the “activity change, negative = growth inhibition” value was inactive: 1.91%. With `CC(C)c1ccc(NC(=O)c2sccc2-n2cccc2)cc1` the Potency was inconclusive [inhibitor, single point]. For `COCCNc1nnc(SCC(=O)NNC(=O)c2ccc([N+](=O)[O-])cc2)s1`, the “activity change, negative = growth inhibition” value was inactive: -8.08%. With `COc1ccc(-c2cc(C(=O)NCC3CCCO3)c3cc(C(C)C)ccc3n2)cc1` (stereo not drawn) the Potency was inconclusive [inhibitor, single point]. With `CC(C)CN(C(=O)COC(=O)c1ccc(Cl)c(N)c1)c1c(N)n(Cc2ccccc2)c(=O)[nH]c1=O` the Potency was inconclusive [inhibitor, single point]. For `CCCc1nnc(NC(=O)C(CC)OC(=O)c2cc(C)nc3ccccc23)s1` (stereo not drawn), the Potency was inconclusive [inhibitor, single point]. In the case of `CCOc1ccccc1C(=O)N1CCOCC1`, the “activity change, negative = growth inhibition” value was inactive: -3.34%. For `CCCN(CCC)CCNC(=O)c1cc2c(C)nc3ccccc3c2o1`, the Potency was inconclusive [inhibitor, partial curve]. In the case of `CN1C(=O)c2[nH]nc(-c3ccc(F)cc3)c2C1c1cccc(O)c1` (stereo not drawn), the Potency was inconclusive [inhibitor, single point]. In the case of `CNc1sc(C(=O)c2ccccc2F)c(N)c1-c1nc2ccccc2s1`, the activity change, negative = growth inhibition was inconclusive: -30.9% [inhibitor]. In the case of `CC1CCc2cc(F)ccc2N1C(=O)c1cccnc1` (stereo not drawn), the Potency was inconclusive [inhibitor, single point]. For `Cc1nc(C)c(C(=O)NNC(=O)Nc2ccc(Cl)cc2)s1`, the “activity change, negative = growth inhibition” value was inactive: -15.7%. With `CC1CCCC(C)N1CC(O)COCc1ccccc1F` (stereo not drawn) the “activity change, negative = growth inhibition” value was inactive: 6.86%. In the case of `COc1cc(/C=C2\SC(N)=NC2=O)cc(Br)c1O`, the Potency was inconclusive [inhibitor, single point]. For `CCc1cccc(CC)c1NC(=O)c1ccccc1CCc1ccccc1`, the Potency was inconclusive [inhibitor, partial curve, poor fit]. For `Cc1ccc(CN2CCN(Cc3cccn3-c3nccs3)CC2CCO)cc1` (stereo not drawn), the Potency was inconclusive [inhibitor, single point]. With `O=C(COC(=O)CNC(=O)c1ccccc1)Nc1ccc(S(=O)(=O)N2CCOCC2)cc1` the “activity change, negative = growth inhibition” value was inactive: 17%. For `Cc1ccc2nc(NCC(=O)O)nc(-c3ccccc3)c2c1`, the “activity change, negative = growth inhibition” value was inactive: -12%.
